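All cell lines were grown in 96-well plates and treated with compound for 48 hours. At the GI50, growth is halved. Definition used: TGI = concentration required for complete inhibition of growth.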
Tested on: NCI-H322M lung
Test: NCI-60 cell line screen, 48 h

| Structure (SMILES) | GI50 [µM] | TGI [µM] |
| --- | --- | --- |
| COc1cc(OC)cc(-c2cc3ccc(N(C)C)cc3c(=O)[nH]2)c1 | 0.076 | > 100 |
| Nc1nc(Nc2ccc(Cl)cc2)n(Cc2cccc(Br)c2)n1 | 34 | > 100 |
